Laboratory results reported in paper PMC12136788.
Some of the results follow.

T1: UNK ZnF1-3 (human, UniProt Q9C0B0 31-174)
T1 sequence: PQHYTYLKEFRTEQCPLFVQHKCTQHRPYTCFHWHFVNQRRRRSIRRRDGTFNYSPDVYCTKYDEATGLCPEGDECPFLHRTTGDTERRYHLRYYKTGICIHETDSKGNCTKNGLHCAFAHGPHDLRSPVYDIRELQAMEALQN

B1: 141073120_141077993_660_3pUTR_ENSMUSG00000040761_ENSMUST00000078886|mouse|control|control (ssRNA)
RNA: GGGAGUUCUACAGUCCGACGAUCGGUCUCUAUAGUAAUCCUGAUCGUAAUGUCUUGUCCGAUCAAAUGCUCCUGUCCCCCGUUCAUGGUGUCCAUAGGCACUAUGUUCAUAAGCACGCUCCCUGUUAUCUGAAGCCCCAUCGACAACAGAGGAUUGAGCAUCA
B2: chr1:66463027:66463028:+_ENSMUSG00000015222_ENSMUST00000114013|mus_mus|FALSE|FALSE (ssRNA)
RNA: GGGAGUUCUACAGUCCGACGAUCUUUUCUUUCAGGAGUGGAAAUUCUGCCUCUCCCGGUUUUAAAAGGCUUUUCUUUUCUAUGUUUCUCGAGAGACGGUCUCCGAGCAUCCUUCUCAGCUCUCUCCUCUUUAGGAAUAGUUUCCAACAGAGGAUUGAGCAUCA
B3: chr5:71593506:71593507:-_ENSG00000113048_ENST00000457646|hu_hu|motif|central (ssRNA)
RNA: GGGAGUUCUACAGUCCGACGAUCGAUCUAUCUCUUCCCGAGAGGAAAUGUUGUCUAUAAGCCGUGAUAUUGUUAAAGAACGGACAGGCAACUUUCUCUCAAAUGUUUUAUCCAUUAAAGAUGCAAGAUCAGCAAGACAGUAAUCAACAGAGGAUUGAGCAUCA
B4: chr14:73694766:73694767:-_ENSMUSG00000022105_ENSMUST00000022701|mus_hu|FALSE|FALSE (ssRNA)
RNA: GGGAGUUCUACAGUCCGACGAUCUUCAGUAGAUAUCGAACUGCUGGGUUGUGUCAAAUAUAUAAGUUCACAUGUCCUUUCCAAUUUGCUGAAGAGUGCAAACAAUACAUCAUACUUCUUCAACAGUCUUGACAUAGCAUUAUCCAACAGAGGAUUGAGCAUCA
B5: chr16:9197081:9197082:+_ENSG00000182831_ENST00000327827|perfect_dup|motif|central (ssRNA)
RNA: GGGAGUUCUACAGUCCGACGAUCAAGACCAUGCAGAGCUAUGGCUUCCCGGAAGGGUUGCAAAUCAGUCUCUACAGAUGAGCGGGUUUCCGUUGAAGUAGCUCGGUUAGGGGACACUACAGUCAGUCUUGGGGGAGCUCUAGACAACAGAGGAUUGAGCAUCA
B6: 32537018_32537138_208_3pUTR_ENSMUSG00000024381_ENSMUST00000025239|mouse|control|control (ssRNA)
RNA: GGGAGUUCUACAGUCCGACGAUCCUGCGCUCGGGUCAGCUUCUUCUGUACGUUGCUGGCGAUCUUCCCCGCCGUCACCCCCUUGCUCCCCAUCUCUGCCAUCCUGGCGCCGGCCUCGCCCGAAGCGAGCGCGGAUAAUGGCGCCAACAGAGGAUUGAGCAUCA
B7: chrX:72692514:72692515:+_ENSMUSG00000031201_ENSMUST00000033544|mus_mus|FALSE|FALSE (ssRNA)
RNA: GGGAGUUCUACAGUCCGACGAUCUACUGCAGAUUCAAGGCAUACUUUCCCAAUAGUGAUAUGAGGUACAAUAUGGAUUGGGAUUUCAAUUCUCUCAUACUCUGAGCUUUUUUGGGCUUGUAUGGAUUGGAAGCAAGUAUAGAGCAACAGAGGAUUGAGCAUCA
B8: chr4:95202638:95202639:+_ENSG00000163104_ENST00000354268|hu_hu|motif|central (ssRNA)
RNA: GGGAGUUCUACAGUCCGACGAUCUAAUAGAACCUCUAAGAUAUCCAGCAUCAUGGUAAAUUGGCUAAAUAACACAACUCGGUCACCCUUCUGUUUCAAUUCAGACAAGAUGCAUCCUAAAACUCGAAAUUUUCCAGAAUCUAACAACAGAGGAUUGAGCAUCA
B9: chr9:135205225:135205226:-_ENSG00000107290_ENST00000224140|hu_hu|motif|central (ssRNA)
RNA: GGGAGUUCUACAGUCCGACGAUCUGCAGAAGUCAGAUCCACAAAAGUGUUACAUGGAGGUGCUUUGAAUUUUAUGUUUCGGAUAAUUUGCUUUAAGCAACUUUGUAGCUCAUGGGUUUCCUGACUAGUCAACUGCCAACCUAGCAACAGAGGAUUGAGCAUCA
B10: 71194627_71194747_4563_CDS_ENSMUSG00000031386_ENSMUST00000033761|mouse|control|control (ssRNA)
RNA: GGGAGUUCUACAGUCCGACGAUCCUGUGUUGGGAAAGAGGCCAGCAAUGUGGAACCAGCCUGGGAGGUGACAGUGGGCACUGCUACCACCUCUAAGCCCGACUCCAGGGUUCCAUGAGAGGAAGUAGCAUCAGGAAUCAGGGUCAACAGAGGAUUGAGCAUCA
B11: chr1:66461122:66461123:+_ENSMUSG00000015222_ENSMUST00000114013|mus_mus|FALSE|FALSE (ssRNA)
RNA: GGGAGUUCUACAGUCCGACGAUCUGGUGAUGGGAGAGGGACUGUGUACUUGUUGAACACACAGUAUCCCAUGUCUUCAAGUUGACUAUCUGGUUUUACAGUGACUGGGCUUUCAUCAGCGACAGGUGGCAAACUGGUACUACUCAACAGAGGAUUGAGCAUCA
B12: chr6:86333760:86333761:-_ENSG00000135316_ENST00000355238|hu_mus|hu_hu_hu_mus_True|78_108 (ssRNA)
RNA: GGGAGUUCUACAGUCCGACGAUCUUCUUCAAGAAUCUGCUCCUUGGUUUUACUCUUAGGAAUAGAGCCCACAAAAAGCCUAUUGUUGGCAACUGAGAUGCAGACACCAAUGUGCUUCCCGGAACGAAUUUCAUGAUUAUUAUACAACAGAGGAUUGAGCAUCA
B13: 56890833_56890953_4882_3pUTR_ENSMUSG00000055296_ENSMUST00000068792|mouse|control|control (ssRNA)
RNA: GGGAGUUCUACAGUCCGACGAUCUUCUCUUCUUCCCAGGUCAAAUUCUACGCAAACUCUUCAAGGUAAGUUAUGUUAGGGACUAAAAGACUCUUACCACCUCAUGUUAUCUAUUCUCUCUCUGUCCUAGGAAAAUUCCGUAAACAACAGAGGAUUGAGCAUCA
B14: 202742338_202743782_536_CDS_ENSG00000117139_ENST00000367264|human|control|control (ssRNA)
RNA: GGGAGUUCUACAGUCCGACGAUCAAACCCCAUCUUGGUAGCAAUUUUGGUCCAUUUUCUAUCCUUGCAAACAACUGCAAAUCCACCUUCUUCUGCAACUAACUUAUUAAGCUGAAAUAAGUCCAAGAUCUUCCUCUCCACAUGCAACAGAGGAUUGAGCAUCA

Target: T1, UNK ZnF1-3
Experiment: nsRBNS (natural sequence RNA bind-n-seq); RBNS binding buffer (assumed for nsRBNS): 25 mM Tris pH 7.5, 150 mM KCl, 3 mM MgCl2, 0.01% Triton X-100, 500 ug/ml BSA, 20 U/ml SUPERase-In, 4 C; UNK is unkempt and MSI1 is Musashi-1; names of the RNAs are library labels; protein concentration not given here; high values mean tight binding

Row | Binder | binding signal [enrichment R]
1 | B1 | 0.795
2 | B2 | 0.436
3 | B3 | 0.957
4 | B4 | 0.611
5 | B5 | 2.27
6 | B6 | 0.717
7 | B7 | 1.62
8 | B8 | 1.21
9 | B9 | 1.24
10 | B10 | 1.29
11 | B11 | 0.635
12 | B12 | 0.842
13 | B13 | 1.01
14 | B14 | 1.06
